Test results reported in the supplement of paper PMC4604168 (melanoma cell lines).
The other results are listed elsewhere or left out. Most values come without repeats; read them as rough.

What follows are compounds tested on A101D (assay: cell count relative to DMSO control; melanoma cells; higher = more viable cells). Conditions: library dose: low library concentration; 72 h.
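Note: cell number obtained by counting DAPI-stained nuclei in high-throughput microscope images with image analysis software, screen run in 1,536-well plates.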

| SMILES | cell count |
| --- | --- |
| CN(c1ncccc1CNc1nc(Nc2ccc3c(c2)CC(=O)N3)ncc1C(F)(F)F)S(C)(=O)=O + C/C(O)=C(\C#N)C(=O)Nc1cc(Br)ccc1Br [LFM-A13] (first compound 0.08 µM, partner dose 2 µM) | 86.6% |
| O=C(Nc1cc(C(F)(F)F)cc(C(F)(F)F)c1)c1cc(Cl)ccc1O + C/C(O)=C(\C#N)C(=O)Nc1cc(Br)ccc1Br [LFM-A13] (first compound 0.016 µM, partner dose 2 µM) | 110% |
| N#CC[C@H](C1CCCC1)n1cc(-c2ncnc3[nH]ccc23)cn1 [ruxolitinib] + C/C(O)=C(\C#N)C(=O)Nc1cc(Br)ccc1Br [LFM-A13] (first compound 1 µM, partner dose 2 µM) | 107% |
| O=C(/C=C/c1cccnc1)NCCCCC1CCN(C(=O)c2ccccc2)CC1 + C/C(O)=C(\C#N)C(=O)Nc1cc(Br)ccc1Br [LFM-A13] (first compound 0.01 µM, partner dose 2 µM) | 76.9% |
| Cn1cnc2c(F)c(Nc3ccc(Br)cc3Cl)c(C(=O)NOCCO)cc21 [selumetinib] + O=C(Oc1ccc([N+](=O)[O-])cc1)N1CCC(C(O)(c2ccc3c(c2)OCO3)c2ccc3c(c2)OCO3)CC1 [JZL184] (first compound 0.015 µM, partner dose 1 µM) | 103% |
| Nc1ncn([C@H]2C[C@H](O)[C@@H](CO)O2)c(=O)n1 [decitabine] + O=C(Oc1ccc([N+](=O)[O-])cc1)N1CCC(C(O)(c2ccc3c(c2)OCO3)c2ccc3c(c2)OCO3)CC1 [JZL184] (first compound 0.1 µM, partner dose 1 µM) | 93.4% |
| O=C(/C=C/c1cccnc1)NCCCCC1CCN(C(=O)c2ccccc2)CC1 + Cc1cc(SCc2sc(-c3ccc(C(F)(F)F)c(F)c3)nc2C)ccc1OCC(=O)O [GW0742] (first compound 0.01 µM, partner dose 2 µM) | 85.9% |
| CS(=O)(=O)c1ccc(C(=O)Nc2ccc(Cl)c(-c3ccccn3)c2)c(Cl)c1 [vismodegib] + C/C(O)=C(\C#N)C(=O)Nc1cc(Br)ccc1Br [LFM-A13] (first compound 1 µM, partner dose 2 µM) | 105% |
| CS(=O)(=O)CCNCc1ccc(-c2ccc3ncnc(Nc4ccc(OCc5cccc(F)c5)c(Cl)c4)c3c2)o1 [lapatinib] + Cc1cc(SCc2sc(-c3ccc(C(F)(F)F)c(F)c3)nc2C)ccc1OCC(=O)O [GW0742] (first compound 0.8 µM, partner dose 2 µM) | 126% |
| NC1(c2ccc(-c3nc4ccn5c(=O)[nH]nc5c4cc3-c3ccccc3)cc2)CCC1 + C/C(O)=C(\C#N)C(=O)Nc1cc(Br)ccc1Br [LFM-A13] (first compound 0.4 µM, partner dose 2 µM) | 92.1% |
| CC(=O)c1c(C)c2cnc(Nc3ccc(N4CCNCC4)cn3)nc2n(C2CCCC2)c1=O [palbociclib] + O=C(Oc1ccc([N+](=O)[O-])cc1)N1CCC(C(O)(c2ccc3c(c2)OCO3)c2ccc3c(c2)OCO3)CC1 [JZL184] (first compound 0.04 µM, partner dose 1 µM) | 69.2% |
